According to ChEMBL document CHEMBL1156829:
Several values for one entry are separate records, joined by “and”; a condition that tells them apart may be missing. Equal values may be shown once. The full ranking holds about 5,400 compounds; the median of “IFI” is about 2, and the highest 2% start at about 22. This is one part of the list.

Test: NOVARTIS: Inhibition Frequency Index (IFI) - the number of HTS assays where a compound showed > 50% inhibition/induction, expressed as a percentage of the number of assays in which the compound was tested.
Assay type: functional

SMILES	IFI
COc1cc(OC)cc(C(=O)NCC2Cc3cc(Cl)cc(-c4ccncc4)c3O2)c1 (stereo not drawn)	0%
COc1ccccc1Nc1nc(NCc2ccccc2)c2ccccc2n1	7.14%
Oc1cccc(-c2nc(-c3ccccc3)c(-c3ccc4oc5ccc(-c6[nH]c(-c7cccc(O)c7)nc6-c6ccccc6)cc5c4c3)[nH]2)c1	0%
Oc1ccccc1-c1nc2ncccn2c1Nc1cccc(C(F)(F)F)c1	14.3%
COc1cc2c(N3CCOCC3)cc(O)c(CC(=O)Nc3ccccc3)c2cc1OC	4.41%
CSc1nc2nc(C)c(Cc3cccc(F)c3)c(C)n2n1	1.28%
CCCc1nc2ccc(NC(=O)NCC)cc2c(=O)n1Cc1ccc(-c2ccccc2)cc1	7.27%
Oc1ccc(-c2ccnc3cc(Cl)ccc23)cc1CNCCCn1ccnc1	4.31%
CC(C)CCNCC(O)Cn1c2ccc(Cl)cc2c2cc(Cl)ccc21 (stereo not drawn)	5.88%
CCC(=O)Nc1ccc(C(=O)NN=Cc2cc([N+](=O)[O-])ccc2O)cc1	0%
Cc1cccc(N=C2NC(=O)/C(=C\c3ccc(N(C)C)cc3)S2)c1	11.8%
Cc1ccc(NC(=O)C2CSC(c3cccc(F)c3)N2C(=O)c2ccc(C(C)(C)C)cc2)cc1C (stereo not drawn)	4.25%
CCOC(=O)c1cnc2ccc(OC)cc2c1O	1.56% and 1.16%
O=C1C2C(C(=O)N1Cc1ccccc1)C1(c3ccccc3)C(=O)C2(c2ccccc2)C(c2ccccc2)=C1c1ccccc1 (stereo not drawn)	0%
CCc1cc(=O)n(C)c(SC(CC)C(=O)Nc2ccc(F)cc2)n1 (stereo not drawn)	3.12%
COc1ccc(CN2CCC(C(=O)Nc3ccc(Oc4cccnc4)cc3)CC2)cc1	0%
O=C(O)CCCNC(=O)C(O)(c1ccccc1)c1ccccc1	0%
CN(C)c1cc[n+](Cc2ccccc2)cc1	1.54%
CCOc1ccc(N(C(=O)C2COc3ccccc3O2)C(C(=O)NC2CCCCC2)c2cn(C)nc2C)cc1 (stereo not drawn)	1.71%
Oc1cccc(C=Nc2ccccc2)c1O	2.44%
CCN1CCC(Nc2ccnc3cc4ccccc4cc23)CC1	9.09%

SMILES	IFI
CCCN1CCN(CCCNC(=O)c2ccc3c(c2)sc2nc(-c4ccc(OC)cc4)cn23)CC1	0%
O=C(NCCCN1CCCC1=O)C(=O)NCC(c1ccco1)N1CCOCC1 (stereo not drawn)	2.22%
CNc1nc(NN=Cc2cc([N+](=O)[O-])ccc2O)nc(Nc2cccc(C(F)(F)F)c2)n1	2.3%
CCOc1ccc(NC(=O)C(C)Sc2nc3ccccc3[nH]2)cc1 (stereo not drawn)	0%
CC(=O)N(C1=C(N2CCCCC2)C(=O)c2ccccc2C1=O)c1ccc(F)c(F)c1	0%
CCN(CC)CCCNc1nc2cc(OC)c(OC)cc2c2nc(-c3ccccc3)nn12	8.33%
O=C(Nc1cc(C(=O)N2CCC(Cc3ccccc3)CC2)ccc1N1CC2CC(C1)c1cccc(=O)n1C2)c1cccs1 (stereo not drawn)	0%
COc1ccc2nc3cc(Cl)ccc3c(NCCN(CCN)CCN)c2c1	14.5%
CCOc1ccc(-c2noc(-c3ccncc3)n2)cc1OCC	0%
COc1cc(NC(C)CCCN(Cc2ccccc2OC)C(=O)c2cccc(Br)c2)c2ncccc2c1 (stereo not drawn)	3.81%
CCN1/C(=C/c2ccc3ccccc3[n+]2CC)Sc2cc(NC(C)=O)ccc21	8.33%
CCCCCCN(C(=O)Nc1cccc(C#N)c1)C(CC)c1nc2ccccc2c(=O)n1CCC(=O)OC (stereo not drawn)	1.85%
CC(C)(C)NC(=O)c1cn(C2CCCCC2)cc(C(=O)NC2CCN(Cc3ccccc3)C2)c1=O (stereo not drawn)	0.971%
Cc1ccc(-n2c(SCc3cccc(C)c3)nnc2C(Cc2ccccc2)NC(=O)NC(C)(C)C)cc1 (stereo not drawn)	1.09%
CCOC(=O)c1ccc2c(c1)[C@@H]1C=CC[C@@H]1[C@H](c1ccc(OC)c([N+](=O)[O-])c1)N2	0%
COc1cc(NC(C)CCCN(Cc2ccc(Cl)cc2)C(=O)c2ccc(Cl)cc2Cl)c2ncccc2c1 (stereo not drawn)	6.48%
Fc1ccc(C2(CCCSc3nnc4c(n3)[nH]c3ccccc34)OCCO2)cc1	4.67%
C=C[C@H]1CN2CC[C@H]1C[C@H]2[C@H](O)c1ccnc2ccc(OC)cc12	2.01% and 2.63%
O=C1Nc2ccccc2C12Nc1ccccc1-c1nc3ccccc3n12 (stereo not drawn)	0%
CN1c2ccccc2N(C)C1c1ccco1	1.43%
CC(C)CN(CC(O)CN(CCN1CCOCC1)S(=O)(=O)Cc1ccccc1)C(=O)C1CCCN1C(=O)OC(C)(C)C (stereo not drawn)	1.96%

SMILES	IFI
Cc1cccc(C)c1NC(=O)N1CCN(C2CCCCC2)CC1	0%
CC1CCCN(Cc2nnnn2-c2ccc(Cl)cc2)C1 (stereo not drawn)	0%
COC(=O)c1sc(-c2ccccc2)cc1NC(=O)c1ccc(S(=O)(=O)N2CCCCCC2)cc1	0%
c1ccc(CN2CCC(Nc3ncnc4cc(-c5ccccc5)sc34)CC2)cc1	3.47%
O=C(NCC1CCCO1)c1ccc([N+](=O)[O-])cc1Cl (stereo not drawn)	0%
COc1cc(/C=C2/SC(=Nc3ccccc3)NC2=O)ccc1OCc1ccccc1Cl	2.3%
Cc1nc2sccn2c1-c1csc(Nc2ccccn2)n1	6.77%
Cc1ccccc1N1C(=O)C2C3c4ccccc4C(C(=O)O)(c4ccccc43)C2C1=O (stereo not drawn)	0%
COc1cc(NC(C)CCCN(Cc2ccccc2OC)C(=O)c2ccc(C)c([N+](=O)[O-])c2)c2ncccc2c1 (stereo not drawn)	1.83%
CCN1CCN(CCCNC(=S)Nc2ccc3nc(N4CCCC4)cc(C)c3c2)CC1	7.69%
c1cc(-c2cccc3cccnc23)nc(N2CCN(CCN3CCCC3)CC2)c1	4%
CCOc1ccccc1C1C(C#N)=C(SCC(=O)Nc2ccc(Cl)cc2)NC(C)=C1C(=O)Nc1ccccc1 (stereo not drawn)	3.61%
Cc1cc2ncn(N=Cc3cccnc3)c2cc1C	0%
CCOC(=O)N1CCN(C(=O)CCCCn2c(=S)[nH]c3ccsc3c2=O)CC1	2.3%
CCN1C(=Cc2sc3ccc(OC)cc3[n+]2CC)C=Cc2ccccc21	25%
CCc1ccc(NC(=O)c2ccc(F)c(S(=O)(=O)NC3CCCC(C)C3C)c2)cc1 (stereo not drawn)	0%
S=C(NCc1ccco1)NN=CC=NNC(=S)NCc1ccco1	11.7%
O=S(=O)(c1ccc(Cl)cc1)N1CCN(C(=S)NCC2CCCO2)CC1 (stereo not drawn)	4.54%
CSc1nnc(CN2CCSCC2)n1C	0%
CC(=O)Oc1ccccc1-c1nc2ccccn2c1NC(C)(C)CC(C)(C)C	3.77%
COc1ccc(NC2=C(c3ccc(C(F)(F)F)cc3)C(=O)c3ccccc32)cc1	0%
